The values below come from the supplement of paper PMC11417369.

± gives the standard deviation of the averaged measurements. The list shows a part of the results.

This test deals with PfAP2-EXP AP2 domain (GST-tagged). Nature of the test: gcPBM binding intensity (ln(normalized median fluorescence intensity)); higher = stronger DNA binding. In outline: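 An Agilent 4 × 180k array of primer-extended double-stranded 36-bp intergenic genomic probes, with negative controls, was incubated for 1 h with GST-tagged P. falciparum DNA-binding domains expressed in E. coli. Alexa488 anti-GST antibody detected bound protein, scanned at 488 nm. Binding intensity is the highest Masliner-normalised natural-log median intensity across replicate spots of either probe orientation.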
As to TTTGTTCTTTTTGAAGTGCACTGAAATATAACAAAA, the “gcPBM binding intensity (ln)” value was 9.12 ± 0.4. Regarding “AAAAAAACACACACATATATATATATATATATATAT [GTGCAC_negctrl_site498]”, the “gcPBM binding intensity (ln)” value came out at 10.2 ± 0.41.

As for “AAGAAAAAGAATAACCTTATTTCTATATACTAATTT [TGCATGCA_negctrl_site477]”, the “gcPBM binding intensity (ln)” value was 7.96 ± 0.48. For the sequence “ATCAAAATTGTCATTACACACCTTTATTTTTATAAT [CACACA_site5071]”, the “gcPBM binding intensity (ln)” value came out at 8.69 ± 0.38.

For the sequence “AAATAAATAAATAGACGTACAAAAATATTATACATT [XGTACX_site6776]”, the “gcPBM binding intensity (ln)” value is 8.46 ± 0.35. Take “GATATGATGTGTTTGGTAGTTTTTGATGTTGGCATG [GTGCAC_negctrl_site506]”: the “gcPBM binding intensity (ln)” value amounted to 8.63 ± 0.56. Turning to “AATAATGAAAAAATGAATAAAATTACTATATAATTC [XGTACX_negctrl_site457]”, the “gcPBM binding intensity (ln)” value worked out at 8.18 ± 0.18. Turning to “TATAAATGTGTATGCGCATGTAAAAATATAATTTAT [TGCATGCA_site750]”, the “gcPBM binding intensity (ln)” value stood at 9.07 ± 0.43. For the sequence “GTAAATAATAAACACCGTACATGGTATAATTCAATG [XGTACX_site3655]”, the “gcPBM binding intensity (ln)” value was 8.65 ± 0.35.

Regarding “AAAATTTTTTGAAATAGTACTTTTTTATATATATAT [XGTACX_site2634]”, the “gcPBM binding intensity (ln)” value amounted to 9.77 ± 0.071. As for “ATAAGGTTACAACAAACACACAAAGGAATATACACA [CACACA_site7840]”, the “gcPBM binding intensity (ln)” value is 9.01 ± 0.47. The figure for “AGGTGCTTAATATATACACACATACAGATATATATA [CACACA_site5552]” is 8.805 ± 0.049; for “GAACTCATTACAAAGTGTACAAATTAAATAAATGGT [XGTACX_site3995]” it is 8.84 ± 0.36. In the case of TTTTTCTTATTTGGATTGCACTACATATATATATAT, the “gcPBM binding intensity (ln)” value worked out at 10.14 ± 0.078. Take “CAACAAAATAAACACACACACACAAACACAAAAAAA [CACACA_site5806]”: the “gcPBM binding intensity (ln)” value is 8.53 ± 0.59. As for “TATAAATTTATATATGCATGTCAGAAAAAAAAGTAA [TGCATGCA_site414]”, the “gcPBM binding intensity (ln)” value came to 8.99 ± 0.37.

Regarding “ACAAAAAATTAATGAGAAATGGAATAATAAGTTATA [GTGCAC_negctrl_site321]”, the “gcPBM binding intensity (ln)” value worked out at 8.6 ± 0.36. Take “TGTATACCTTAATATACACACATACCTATATTTATA [CACACA_site6746]”: the “gcPBM binding intensity (ln)” value is 8.44 ± 0.4. Turning to “TATAAATAGAGGAAGCGTACATATATATATATATAT [XGTACX_site4993]”, the “gcPBM binding intensity (ln)” value was found to be 10.1 ± 0.37. Regarding “AAGAAAAAAAAAAAAACACACATATATATATATATA [CACACA_site2027]”, the “gcPBM binding intensity (ln)” value worked out at 10.2 ± 0.13. Consider “ATATATAAATATATATGTACATAAATATATATCTTT [XGTACX_site6910]”, for which the “gcPBM binding intensity (ln)” value turned out to be 8.57 ± 0.31. For “GGATATTAATAAATATGTACATATGTAGATTTATTA [XGTACX_site554]”, the “gcPBM binding intensity (ln)” value was found to be 8.41 ± 0.47. As to “TATTTTTTTTTTTTTTGTACACATAATTGTAATCGT [XGTACX_site8415]”, the “gcPBM binding intensity (ln)” value came to 8.67 ± 0.13. As for “CCACAGGATTGGTTCAAACACACATATTATATGACT [CACACA_site661]”, the “gcPBM binding intensity (ln)” value came out at 8.48 ± 0.44. The figure for “CATATAAAAATGTGCACACACACACCGATATATATT [CACACA_site4940]” is 8.94 ± 0.21; for “AAAAAAAAAATAAAATAAAATATATTATATATATTA [GTGCAC_negctrl_site431]” it is 7.89 ± 0.48; for “TCACTTTTTATTAAATGTACATGCTTTCATTTTCAT [XGTACX_site8139]” it is 8.89 ± 0.43.

With “TATATATATATATATGTACACACATCAATCATATTA [CACACA_site8594]”, the “gcPBM binding intensity (ln)” value worked out at 10.1 ± 0.36.

As to “GAATAAATAATTAACACACACAATCTTTTTTTTTTT [CACACA_site3140]”, the “gcPBM binding intensity (ln)” value is 8.24 ± 0.27. The figure for “TGTACGAGTCGTAGAGTGCAGTCTGGAGAAAAGTAC [GTGCAC_site9683]” is 9.37 ± 0.39; for “TATATATATATATATACACACTTGTGCAGAATATTA [CACACA_site5257]” it is 10 ± 0.55.

As to “AACGTGTATTTATATTGTACACATTCATACATCAAA [XGTACX_site3644]”, the “gcPBM binding intensity (ln)” value was determined as 8.66 ± 0.13. With “GTAGTGGTTGAATATACACACATATATATATATATA [CACACA_site2651]”, the “gcPBM binding intensity (ln)” value stood at 10.1 ± 0.3. On to “AGATAATAGGTTACTTGTACATATAAATAAATATAT [XGTACX_site158]”, for which the “gcPBM binding intensity (ln)” value stood at 8.46 ± 0.31. The figure for “AAAATCTAATATAATGCACACATAAAAAAAAATCAA [CACACA_site9211]” is 8.59 ± 0.33; for “AAAAAAAAAAAAAATTCACACAAGACTACTACATTT [CACACA_site4195]” it is 8.13 ± 0.49; for TTTTGTTATTATGAAGTGCATTTATGTTCATGTCTA it is 8.69 ± 0.26. For the sequence “ATATTAATTTCTCATGCATGTTCTACCCAATTGTAA [TGCATGCA_site355]”, the “gcPBM binding intensity (ln)” value worked out at 9.28 ± 0.38. TATATTATATATATACTGCACTGTTTTACAAAATTA: the “gcPBM binding intensity (ln)” value amounted to 8.78 ± 0.11. The figure for “ATATATGACTAATAAAGTACATACTTCATATAATTA [XGTACX_site6699]” is 8.41 ± 0.14. In the case of “ACCCTTTTATATAAGAGTACAAACGTATTATTAAAT [XGTACX_site2221]”, the “gcPBM binding intensity (ln)” value worked out at 8.48 ± 0.36.

On to “AATATTAAAAACAAAACACACAAAAAAAAATAAAAT [CACACA_site702]”, for which the “gcPBM binding intensity (ln)” value was determined as 8.74 ± 0.57. As for “TTTTAGTTATTGTATTATTATTAATATATAATATCT [CACACA_negctrl_site1528]”, the “gcPBM binding intensity (ln)” value turned out to be 8.35 ± 0.42.

With “AAAGCATGTTAATATGTATAAATACTGATCATTCAC [GTGCAC_negctrl_site576]”, the “gcPBM binding intensity (ln)” value was found to be 8.42 ± 0.27.
